Measurements from the supplement of paper PMC4723716.
± gives the uncertainty stated by the source. The full ranking holds about 9,900 compounds; the median of “viability index relative to DMSO control” is about 1, and the lowest 2% start at about 0.85. This is one part of the list.

System: Plasmodium falciparum NF54 stage V gametocytes
Assay: viability index relative to DMSO control (fraction); higher = less gametocyte killing
Details: 2.5 µM, incubation time: 72 h
Method: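 Broad DOS informer set and blood-stage-active DOS compounds screened in duplicate at 2.5 µM against P. falciparum NF54 stage V gametocytes with the serum-free one-step SaLSSA (1536-well): 72 h at 37 °C under low oxygen, then saponin lysis and MitoTracker Red CMXRos staining, with high-content imaging. Viability index = viable-object count divided by the plate mean of DMSO wells (0 = killed, about 1 = inactive).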

[1] = library set: Broad Institute DOS

SMILES | viability index [1] | viability index (library set: Broad Institute Blood Stage)
O=C(C[C@@H]1CC[C@@H]2NC[C@H](O)COC[C@H]2O1)NCc1ccc2c(c1)OCO2 | 1.02 ± 0.035 | –
O=C(C[C@@H]1C=C[C@H](NC(=O)Nc2cccc(F)c2)[C@H](CO)O1)NCC1CCCCC1 | 1.01 ± 0.038 | –
C/C=C/c1ccc([C@@H]2[C@H](CO)N3C(=O)CN(C(=O)c4ccncc4)C[C@@H]23)cc1 | 0.9841 ± 0.0026 | –
CNC[C@@H]1Oc2ccc(NS(=O)(=O)c3ccc(OC)cc3)cc2C(=O)N([C@H](C)CO)C[C@@H]1C | 1.04 ± 0.013 | –
CO[C@@H]1CN(C)C(=O)c2ccc(NC(=O)NC(C)C)cc2OC[C@@H](C)N(Cc2ccccc2)C[C@H]1C | – | 0.926 ± 0.045
CCCC#Cc1ccc([C@H]2[C@@H](C#N)N(C(=O)CN3CCOCC3)[C@@H]2CO)cc1 | 1.079 ± 0.002 | –
COc1cccc(C(=O)Nc2ccc3c(c2)C(=O)N(C)[C@H]2CC[C@H](CC(=O)NCc4ccc(F)cc4)O[C@H]2CO3)c1 | 1.09 ± 0.048 | –
COCC(=O)N1CC(=O)N2[C@H](C1)[C@H](c1ccc(-c3ccncc3)cc1)[C@@H]2CO | 1.06 ± 0.021 | –
O=C(NCC[C@H]1CC[C@@H](NS(=O)(=O)Cc2ccccc2)[C@@H](CO)O1)C1CCCCC1 | 1.03 ± 0.13 | –
CCCNC(=O)N1C[C@H]2[C@@H](c3ccccc31)[C@@H](CO)N2Cc1cccc(OC)c1 | 1.09 ± 0.059 | –
Cc1nn(C)cc1NC(=O)C[C@@H]1CC[C@@H]2[C@H](COc3ccc(NC(=O)c4cccc(F)c4)cc3C(=O)N2C)O1 | 1.15 ± 0.11 | –
O=C(Cc1ccncc1)Nc1ccc2c(c1)[C@@H]1C[C@@H](CC(=O)N3CCc4ccccc4C3)O[C@H](CO)[C@@H]1O2 | 1.082 ± 0.0014 | –
N#C[C@H]1[C@@H](c2ccccc2)[C@H](CO)N1C(=O)c1ccc2c(c1)OCO2 | 1.01 ± 0.088 | –
CN(C)C(=O)C[C@@H]1CC[C@@H]2[C@@H](COc3ccc(NC(=O)C4CCCCC4)cc3C(=O)N2C)O1 | 1.04 ± 0.07 | –
OC[C@H]1[C@@H](c2ccccc2)C2(CN(Cc3nccs3)C2)N1Cc1cc(F)ccc1F | 1.1 ± 0.06 | –
N#Cc1cccc(-c2ccc3c(c2)[C@H]2[C@H](CCN2Cc2ccc4c(c2)OCO4)[C@H](CO)N3)c1 | 0.955 ± 0.043 | –
O=C1CNC[C@@H]2[C@@H](c3ccc(C4=CCCC4)cc3)[C@H](CO)N12 | 1.02 ± 0.12 | –
C[C@@H]1CN([C@H](C)CO)C(=O)Cc2cc(NC(=O)CCCCCC(=O)Nc3ccccc3N)ccc2O[C@H]1CN(C)S(=O)(=O)c1cccs1 | 0.92 ± 0.16 | –
COc1ccc2c3c([nH]c2c1)[C@@H](CO)N(C[C@]31CN(Cc2ccccc2Cl)C1)C(C)=O | 1.01 ± 0.02 | –
CCCNC(=O)C[C@@H]1CC[C@@H]2[C@H](COc3ccc(NC(=O)CC)cc3C(=O)N2C)O1 | 1.12 ± 0.12 | –
C[C@@H]1CN([C@H](C)CO)C(=O)CCCn2nncc2CO[C@@H]1CN(C)C(=O)Nc1ccc2c(c1)OCCO2 | 1.05 ± 0.037 | –
N#Cc1cccc(-c2ccc([C@H]3[C@H]4CNC[C@@H]3N4S(=O)(=O)Cc3ccccc3)cc2)c1 | 1.05 ± 0.047 | –
CCCNC(=O)N1[C@@H]2Cn3c(ccc(-c4ccc(OC)cc4)c3=O)[C@H]1[C@@H](C(=O)NC1CCC1)[C@@H]2CO | 1.09 ± 0.026 | –

SMILES | viability index [1] | viability index (library set: Broad Institute Blood Stage)
Cc1noc(C)c1S(=O)(=O)N(C)C[C@@H]1Oc2c(NC(=O)c3ccc(-c4nccs4)cc3)cccc2C(=O)N([C@@H](C)CO)C[C@H]1C | 0.828 ± 0.018 | –
O=C(C[C@H]1CC[C@@H]2[C@H](COC[C@@H](O)CN2C(=O)c2cnccn2)O1)N1CCN(c2ccccc2)CC1 | 1.05 ± 0.11 | –
O=C(CN1CCOCC1)N[C@@H]1CC[C@@H](CCn2cc(C3CC3)nn2)O[C@@H]1CO | 1.14 ± 0.095 | –
C[C@H](CO)N1C[C@H](C)[C@@H](CN(C)C(=O)Nc2ccc(C(F)(F)F)cc2)OCCCC[C@H](C)Oc2ccc(NS(=O)(=O)c3cn(C)cn3)cc2C1=O | 1.04 ± 0.19 | –
COc1cccc(S(=O)(=O)Nc2ccc3c(c2)C(=O)N(C)[C@@H]2CC[C@H](CC(=O)NCC4CCCCC4)O[C@H]2CO3)c1 | 0.964 ± 0.022 | –
COCCNC(=O)[C@@H]1[C@@H](CO)[C@@H]2Cn3c(ccc(-c4ccc(F)cc4)c3=O)[C@H]1N2C(=O)NC(C)C | 1.05 ± 0.029 | –
COCC(=O)Nc1ccc2c(c1)C(=O)N(C)[C@H]1CC[C@H](CC(=O)NCCCN(C)C)O[C@H]1CO2 | 1.05 ± 0.025 | –
O=C(C1CCOCC1)N1CC(=O)N2[C@H](CO)[C@@H](c3ccc(C#CC4CCCCC4)cc3)[C@@H]2C1 | 1.01 ± 0.045 | –
C[C@@H]1CN([C@@H](C)CO)C(=O)CCCn2nncc2CO[C@@H]1CN(C)Cc1ccc(C(=O)Nc2ccccc2N)cc1 | 1.05 ± 0.012 | –
CN1C(=O)c2cc(NS(C)(=O)=O)ccc2OC[C@@H]2O[C@@H](CC(=O)N3CCOCC3)CC[C@@H]21 | 1.02 ± 0.084 | –
CCS(=O)(=O)N1CC[C@@]2(CC1)CN([C@H](CO)c1c2c2ccc(OC)cc2n1C)C(=O)Nc1c(C)noc1C | 1.07 ± 0.035 | –
CCCNC(=O)N1C[C@]2(CN(C2)C(=O)c2cnccn2)c2c([nH]c3cc(OC)ccc23)[C@H]1CO | 0.939 ± 0.058 | –
CO[C@H]1CN(C)C(=O)c2cc(NC(=O)c3ccc4c(c3)OCO4)ccc2OC[C@@H](C)N(CCC(F)(F)F)C[C@H]1C | 1.08 ± 0.015 | –
O=C(Nc1cccc(F)c1)N1C[C@@H]2[C@H](c3ccccc31)[C@@H](CO)N2C(=O)Cc1ccccn1 | 1.08 ± 0.019 | –
O=C(O)C[C@H]1CC[C@@H]2[C@H](COC[C@H](O)CN2S(=O)(=O)c2ccc(Oc3ccccc3)cc2)O1 | 0.998 ± 0.049 | –
O=C(C[C@@H]1CC[C@@H]2[C@H](COC[C@@H](O)CN2C(=O)Cc2ccccc2)O1)NC1Cc2ccccc2C1 | 1.05 ± 0.055 | –
COCC(=O)Nc1ccc2c(c1)C(=O)N(C)[C@@H]1CC[C@H](CC(=O)N3CCc4ccccc4C3)O[C@H]1CO2 | 1.01 ± 0.037 | –
CC(C)NC(=O)Nc1ccc2c(c1)C(=O)N(C)[C@@H]1CC[C@@H](CC(=O)NCc3ccc(F)cc3)O[C@@H]1CO2 | 1.06 ± 0.083 | –
CN(C)CC(=O)N1C[C@@H]2N[C@H](C1)[C@H]2c1ccc(-c2ccccc2F)cc1 | 0.832 ± 0.011 | –
COC(=O)C[C@@H]1CC[C@@H]2[C@H](COC[C@@H](O)CN2S(=O)(=O)c2cn(C)cn2)O1 | 0.99 ± 0.043 | –
COCC(=O)N1[C@H](CNC(=O)c2ccccn2)[C@H](c2ccccc2)[C@@H]1CO | 0.984 ± 0.013 | –
CC(C)c1cccc(NC(=O)C[C@H]2CC[C@H]3[C@@H](COc4ccc(NC(=O)NCc5ccccc5)cc4C(=O)N3C)O2)c1 | 1.15 ± 0.082 | –
